According to the supplement of paper PMC4967469:

Columns and labels:
Test in all cases: Viability of human cancer cell lines after 72 h of drug (GDSC screen)
[1] = compound: CC1(C)CC(=O)c2c(C(F)(F)F)nn(-c3ccc(C(N)=O)c(N[C@H]4CC[C@H](O)CC4)c3)c2C1 [SNX-2112]; settings: top dose 2.56 µM
Protocol: (§1)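 Human cancer cell lines in 384-well plates, medium with 10% serum, drug for 72 h over a 256-fold dose range (nine 2-fold or five 4-fold steps up to the top dose). Adherent lines were fixed and stained with the nucleic acid dye Syto60, suspension lines read with resazurin; signal relative to control wells, capped at 0 and 100%. One two-parameter sigmoid per drug and line, fitted in a mixed model over all curves with the slope shared within a line.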

[2] = compound: CN(c1ncccc1CNc1nc(Nc2ccc3c(c2)CC(=O)N3)ncc1C(F)(F)F)S(C)(=O)=O [PF-562271]; settings: top dose 2.56 µM; top dose inferred
Protocol: as §1

[3] = compound: CN(C)C/C=C/C(=O)Nc1cc2c(Nc3ccc(F)c(Cl)c3)ncnc2cc1O[C@H]1CCOC1 [Afatinib]
Protocol: as §1

[4] = compound: O=C(NC1CC1)c1cccc(-c2ccc3c(NC(=O)C4CC4)n[nH]c3c2)c1 [XMD13-2]; settings: top dose 10.24 µM; top dose inferred
Protocol: as §1

[5] = compound: CC[C@]1(O)C[C@@H]2CN(CCc3c([nH]c4ccccc34)[C@@](C(=O)OC)(c3cc4c(cc3OC)N(C)[C@H]3[C@@](O)(C(=O)OC)[C@H](OC(C)=O)[C@]5(CC)C=CCN6CC[C@]43[C@@H]65)C2)C1 [Vinblastine]; settings: top dose 0.1 µM; top dose inferred
Protocol: as §1

[6] = top dose 0.5 µM, screen: GDSC drug entry 1032
[7] = top dose 10 µM, screen: GDSC drug entry 1377, top dose inferred

Cell Line	AUC [1]	IC50 [1]	AUC [2]	IC50 [2]	AUC [3, 6]	IC50 [3, 6]	AUC [3, 7]	IC50 [3, 7]	AUC [4]	IC50 [4]	AUC [5]	IC50 [5]
P12-ICHIKAWA (T-cell lymphoblastic leukaemia, suspension)	0.308	53.5 nM	0.93	> 2560 nM	0.994	> 500 nM	0.994	> 10000 nM	0.937	> 10200 nM	0.67	16.5 nM
P30-OHK (lymphoblastic leukaemia, suspension)	0.276	42.1 nM	0.912	> 2560 nM	0.982	> 500 nM	0.975	> 10000 nM	0.859	6300 nM	0.549	8.3 nM
P32-ISH (Burkitt lymphoma, suspension)	0.254	39.4 nM	0.931	2440 nM	0.995	> 500 nM	0.987	> 10000 nM	0.55	847 nM	0.312	2.16 nM
PA-1 (ovary, adherent)	0.239	35 nM	0.859	1430 nM	0.992	> 500 nM			0.872	6320 nM	0.505	6.43 nM
PA-TU-8988T (pancreas, adherent)	0.639	387 nM	0.922	> 2560 nM	0.981	> 500 nM	0.943	> 10000 nM	0.965	> 10200 nM	0.651	16.5 nM
PANC-02-03 (pancreas, adherent)	0.501	161 nM	0.939	> 2560 nM	0.784	260 nM	0.849	9880 nM	0.95	> 10200 nM	0.556	9.16 nM
PANC-03-27 (pancreas, adherent)	0.474	137 nM	0.931	> 2560 nM	0.929	> 500 nM	0.892	> 10000 nM	0.947	> 10200 nM	0.472	5.26 nM
PANC-04-03 (pancreas, adherent)	0.932	> 2560 nM	0.934	> 2560 nM	0.897	> 500 nM			0.962	> 10200 nM	0.798	86.6 nM
PANC-08-13 (pancreas, adherent)	0.673	560 nM	0.889	> 2560 nM	0.885	> 500 nM	0.917	> 10000 nM	0.959	> 10200 nM	0.699	26.9 nM
PC-3 [JPC-3] (lung adenocarcinoma, adherent)	0.805	1830 nM	0.954	> 2560 nM	0.465	24.3 nM	0.286	126 nM	0.957	> 10200 nM	0.862	> 100 nM
PCI-4B (head and neck, adherent)	0.331	55.6 nM	0.886	> 2560 nM	0.437	21.2 nM	0.526	733 nM	0.909	> 10200 nM	0.45	4.6 nM
PCI-6A (head and neck, adherent)	0.348	61.2 nM	0.894	> 2560 nM	0.483	28.1 nM	0.667	1800 nM	0.741	3070 nM	0.321	2 nM
PCI-15A (head and neck, adherent)	0.975	> 2560 nM	0.948	> 2560 nM	0.913	> 500 nM	0.877	> 10000 nM	0.944	> 10200 nM	0.93	> 100 nM
PCI-30 (head and neck, adherent)	0.844	2490 nM	0.983	> 2560 nM	0.973	> 500 nM	0.959	> 10000 nM	0.969	> 10200 nM	0.621	14.5 nM
PE/CA-PJ15 (head and neck, adherent)	0.824	1690 nM	0.974	> 2560 nM	0.95	> 500 nM	0.756	3670 nM	0.973	> 10200 nM	0.591	11.3 nM
PF-382 (T-cell lymphoblastic leukaemia, suspension)	0.253	35 nM	0.915	> 2560 nM	0.99	> 500 nM	0.99	> 10000 nM	0.877	8050 nM	0.752	29.5 nM
PFSK-1 (medulloblastoma, adherent)	0.419	94.6 nM	0.958	> 2560 nM	0.983	> 500 nM	0.973	> 10000 nM	0.854	8900 nM	0.461	4.85 nM
PL4 (pancreas, adherent)	0.839	1830 nM	0.967	> 2560 nM	0.973	> 500 nM	0.928	> 10000 nM	0.979	> 10200 nM	0.878	> 100 nM
PL-21 (acute myeloid leukaemia, suspension)	0.386	73.5 nM	0.877	> 2560 nM	0.979	> 500 nM	0.965	> 10000 nM	0.745	3690 nM	0.56	9.35 nM
PSN1 (pancreas, adherent)	0.185	22.6 nM	0.97	> 2560 nM	0.991	> 500 nM	0.985	> 10000 nM	0.889	8430 nM	0.281	1.69 nM
QIMR-WIL (acute myeloid leukaemia, suspension)	0.203	21.9 nM	0.922	> 2560 nM	0.987	> 500 nM	0.985	> 10000 nM	0.677	1960 nM	0.396	3.27 nM
RC-K8 (B-cell lymphoma, suspension)	0.605	297 nM	0.985	> 2560 nM	0.993	> 500 nM	0.973	> 10000 nM	0.993	> 10200 nM	0.933	> 100 nM

Lines with a small IC50 respond at low doses; where the fit passes the top or lowest dose, that dose stands as a limit. The AUC spans the tested range (256-fold, ending at the top dose) of the same fit: 1 means no effect, lower means more sensitive. For some assays here: A top dose marked as inferred comes from the curve model; the source does not state it. For some assays here: Drugs with an entry number were screened twice under separate entries, and the two screens often disagree.
